Results on one molecule are retold here after US20210017279A1 (NANJING LEGEND BIOTECH, published 2021).

In assay [1] the target is LAG-3 on Thaw-and-Use LAG-3 Effector cells. The assay is described as follows: cell-based or functional assay.
Assay [2] has as its target T1, Human LAG-3-His (human, UniProt P18627 29-450).
T1 construct: Bought recombinant protein; also called Human LAG-3 protein (Acrobiosystem, 772-6BGF2-D5); not shown: His tag
T1 sequence: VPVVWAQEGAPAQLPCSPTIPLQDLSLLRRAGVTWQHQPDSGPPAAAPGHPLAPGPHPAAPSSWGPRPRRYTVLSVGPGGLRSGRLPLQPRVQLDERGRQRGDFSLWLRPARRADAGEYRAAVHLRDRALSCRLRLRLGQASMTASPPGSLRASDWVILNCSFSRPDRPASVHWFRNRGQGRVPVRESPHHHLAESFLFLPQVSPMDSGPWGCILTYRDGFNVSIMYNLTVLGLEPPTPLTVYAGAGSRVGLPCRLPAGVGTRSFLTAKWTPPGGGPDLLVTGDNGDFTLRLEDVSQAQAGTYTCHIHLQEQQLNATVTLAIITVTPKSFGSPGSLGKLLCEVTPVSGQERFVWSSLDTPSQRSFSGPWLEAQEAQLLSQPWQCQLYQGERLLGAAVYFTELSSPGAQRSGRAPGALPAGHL
The assay is described as follows: SPR (Biacore T200), as in Example 3; Experiment 1. (In general: In SPR one partner is held on a chip, and binding of the other changes the refractive index at the surface.)

Assay [3] has as its target T2, human LAG-3 expressed on CHO-K1 cells (human, UniProt P18627 29-525).
T2 construct: also called CHO-huLAG-3 cells; LAG-3 expressed on CHO cells
T2 sequence: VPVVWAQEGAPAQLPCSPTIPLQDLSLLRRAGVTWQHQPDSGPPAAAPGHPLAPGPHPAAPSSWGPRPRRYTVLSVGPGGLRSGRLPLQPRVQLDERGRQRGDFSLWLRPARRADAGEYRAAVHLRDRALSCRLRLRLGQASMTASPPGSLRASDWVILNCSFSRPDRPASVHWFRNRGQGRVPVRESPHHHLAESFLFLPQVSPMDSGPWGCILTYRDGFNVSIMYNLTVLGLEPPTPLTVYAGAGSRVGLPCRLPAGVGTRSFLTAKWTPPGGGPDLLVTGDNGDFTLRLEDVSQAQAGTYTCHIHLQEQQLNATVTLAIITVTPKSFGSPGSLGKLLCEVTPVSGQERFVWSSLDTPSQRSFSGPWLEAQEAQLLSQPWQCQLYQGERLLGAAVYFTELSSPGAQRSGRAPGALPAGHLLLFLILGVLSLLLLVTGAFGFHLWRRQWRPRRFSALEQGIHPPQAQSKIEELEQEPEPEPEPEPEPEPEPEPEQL
The assay is described as follows: flow cytometry on CHO-K1 cells expressing human LAG-3. How it is done: (§1) To determine cell binding EC₅₀, CHO-K1 cells expressing human or cynomolgus LAG-3 were harvested and incubated with anti-LAG-3 sdAb-Fc fusion proteins at gradient concentrations, followed by fluorophore-labeled secondary antibodies against human Fc. […] The samples were then analyzed with flow cytometry. The binding and blocking curves were shown in FIG. 4 and FIG. 5, respectively.
In general terms: Flow cytometry measures light scatter and fluorescence of single cells or particles in a stream.

Assay [4] has as its target T3, cynomolgus LAG-3 expressed on CHO-K1 cells (cynomolgus).
T3 construct: whole, on cells
The assay is described as follows: flow cytometry on CHO-K1 cells expressing cynomolgus LAG-3. How it is done: as §1

Assay [5] deals with T2, human LAG-3 expressed on CHO-K1 cells. Put plainly: flow cytometry on CHO cells expressing LAG-3; Experiment 1.
Assay [6] concerns the target T1, Human LAG-3-His. The assay is described as follows: SPR (Biacore T200); antibody captured on chip, LAG-3 injected.
Another assay has as its target T4, Cynomolgus LAG-3-Fc (cynomolgus).
T4 construct: Bought recombinant protein; also called cynomolgus LAG-3 protein (Acrobiosystem, 2187-71HF1-DZ)
The description is as above.

Assay [7] has as its target T5, LAG-3-Fc (human, UniProt P18627 29-450, biotinylated (in the blocking assays)).
T5 construct: Recombinant LAG-3-Fc (Acrobiosystems / R&D Systems); also called biotinylated LAG-3-Fc protein; not shown: Fc part
T5 sequence: T1 sequence
The assay is described as follows: flow cytometry competition; blocks biotinylated LAG-3-Fc binding to MHC II on A375 cells. The protocol: as §1

The target of assay [8] is T5, LAG-3-Fc. The assay is described as follows: flow cytometry competition; blocks LAG-3-Fc binding to MHC II on A375 cells; Experiment 1.
Assay [9] addresses T5, LAG-3-Fc. Put plainly: flow cytometry competition; span of the blocking curve, LAG-3-Fc binding to MHC II on A375 cells. How it is done:
as §1

B1: AS20846-Fc (Fc fusion)
chain: QVHLMESGGGSVQVGGSLRLSCAASGYTVSSYCMGWFRQAPGKEREGVAAIDSDGSVSYADSVKGRFTISKDNAKNTLYLQMNSLKPEDTAMYFCAADLCWVDQDQGEYNTWGQGTQVTVSS[letters of human IgG4 Fc with S228P (EU numbers) omitted]
notes: also called AS20846 HCAb; non-humanized anti-LAG-3 sdAb-Fc fusion protein
The term Kd denotes a measure of binding affinity in units of concentration. A higher Kd goes with weaker binding. The EC50 is the midpoint of the concentration-response curve. By koff is commonly meant the rate constant with which the complex falls apart. A low value points to a long-lived complex. By kon is commonly meant the second-order rate constant of association. Low values mean slower complex formation, high ones faster complex formation. B1: the “LAG-3 blockade reporter assay EC50” value in [1] stood at 1.99 nM. The Kd stood at 0.067 nM with Human LAG-3-His [2], 0.067 nM with Human LAG-3-His [6] and 0.042 nM with Cynomolgus LAG-3-Fc. Besides, the EC50 was determined as 0.462 nM in assay [3]; 1.23 nM in [4]; 0.342 nM in [5]; 3.72 nM with LAG-3-Fc [7]; 0.802 nM with LAG-3-Fc [8]. Also, the koff came to 0.00015 s⁻¹ with Human LAG-3-His [6] and 0.00022 s⁻¹ in the assay with Cynomolgus LAG-3-Fc. The values for the kon with Human LAG-3-His [6] and with Cynomolgus LAG-3-Fc were 2.2e+06 M⁻¹ s⁻¹ and 5.4e+06 M⁻¹ s⁻¹, respectively. This molecule had a Span with LAG-3-Fc [9] of 355.
